From the RNAGym collection of RNA variant scans (doi:10.7554/elife.90254) come the findings set out here.

The source gives no read counts; variants with many changes may rest on few reads.

B1: LINE1-mini (parent)
chain: GGCAGAGCUCAACACAGCGUGGCAAAGUGGCUGUGGCUAGACUGCC

Variants of B1 are the subject of this series. Kind of series: self-cleavage, relative activity (ratio to wild type); higher = more cleavage; in vitro, sequencing; the parent is a self-cleaving ribozyme.
In the case of G7C A16G G35U, the self-cleavage came to 0.01. Turning to G7C A16C G29U G44C, the self-cleavage was found to be 0.03. The figure for G7C A25G C31A U38A is 0.03. On to G7C C13A G17U A26U, for which the self-cleavage came out at 0.01.

As to G7C C15G C23U A26U G30C, the self-cleavage is 0.04.

For G7C C8G G29A G33C, the self-cleavage worked out at 0.04.

In the case of G7C U32C G33U C45A, the self-cleavage turned out to be 0.11. Next, G7C C10G G30U: 0.03. The figure for G7C C15U U28G C37G is 0.02; for G7C A11U A26C it is 0.07.

Turning to G7C G33U G40A, the self-cleavage came to 0.03. Next, G7C A25G U28C: 0.03; G7C C23A A39U U43A: 0; G7C C18G C45G C46U: 0.04. Turning to G7C U20A G30A C37A, the self-cleavage was 0.06. As to G7C C8A U32A U43C, the self-cleavage was 0.09. As for G7C G36U A39C, the self-cleavage stood at 0.1. In the case of G7C C10G C13A, the self-cleavage worked out at 0.01.

G7C G27C C42U: the self-cleavage turned out to be 0.02. Next, G7C C8G U9A G44U: 0.14; G7C G19A U28A G40C: 0.51; G7C C10G G40C G44C: 0.01. As to G7C C8U C37G, the self-cleavage was found to be 0.01. As to G7C C18G G19U G30A, the self-cleavage came out at 0.05. Regarding G7C G22U A25C G27U G40U, the self-cleavage worked out at 0.43. Next, G7C G30A C31A: 0.44.

For the variant G7C G17A U28C U38C, the self-cleavage was 0.05.

Turning to G7C U20G C42A, the self-cleavage was found to be 0.05. As to G7C C23A A25U G33U U34G C37A A41C, the self-cleavage was found to be 0.1.

For G7U A11U A12U C13A C31G G40A C45A, the self-cleavage amounted to 0.

As to G7C U9C A16U G17A G33C, the self-cleavage was 0.

G7C C15U A24G G29C G33C C42G: the self-cleavage was found to be 0.01. Take G7C U9A A14G: the self-cleavage is 0.05.

As to G7C U20A C42A, the self-cleavage stood at 0. The figure for G7C G19C G29U C31U is 0.01. For the variant G7C U20A G27A C31A, the self-cleavage was 0.03. The figure for G7C U38C G44A is 0.14; for G7C G36C C37A G44A it is 0.18; for G7C C10U G22C G33A it is 0.05.

For G7C A11C G29C U32C G40A C46U, the self-cleavage was 0. As for G7C G29A G33A, the self-cleavage is 0.01. Take G7C A16C G30U C31A: the self-cleavage turned out to be 0.05. In the case of G7C C10U G21U G22C C31G G33C U34G, the self-cleavage came out at 0.03. Regarding G7C A11G A16U A25C, the self-cleavage was 0.02.

G7C C23A G30U C46U: the self-cleavage amounted to 0.08. As to G7C C8A C13A A14U G35U G40A U43C, the self-cleavage amounted to 0.41. In the case of G7C G17A A25G C37U, the self-cleavage was found to be 0.05. For the variant G7C C31U G33A, the self-cleavage is 0.04. Next, G7C U32C C45U: 0.09. Next, G7U A12C C15G A41G: 0.01. With G7C A11C A24G A25G, the self-cleavage came out at 0.03. Next, G7U A11U G30C: 0.02; G7C C15U A24G G29A G44A: 0.08.

G7C C23G C31A C42U: the self-cleavage turned out to be 0.14. Next, G7C U9G G44U: 0.04; G7C C18G U28C A41C: 0.06; G7C C31G C37G: 0.01. The figure for G7C G22U C37U C45A is 0.01; for G7C G19A G30C G36U G40A it is 0.1; for G7C C23A U38C it is 0.03. Next, G7C A11C G22C A24G G35C: 0.01; G7C C15U A24U G29U G30A U32G G35A: 0.03. As for G7C G17U A26U A41C, the self-cleavage stood at 0.03. With G7U A12C A14G, the self-cleavage is 0.01. For the variant G7C C10A U28C, the self-cleavage came to 0.05. The figure for G7C A12C A16U is 0.02; for G7U A11C C42U it is 0.03. Next, G7C C15G U34A: 0.2; G7C C8G U34A: 0.03. In the case of G7C C31U G35U C46G, the self-cleavage amounted to 0.04. Next, G7C G22U C45G: 0.14; G7C C8U G35U: 0.15; G7C C8G G17U A26U U28G: 0.22. Consider G7C A12C C15U G30U C45U, for which the self-cleavage came out at 0.03. As for G7C G17U G44C, the self-cleavage was 0.06. Consider G7C U9A C10A C13G G22A U28C, for which the self-cleavage came to 0.02. Take G7U A11C C15A A16C U32C: the self-cleavage turned out to be 0.01. Next, G7C A24G A26U: 0.17. The figure for G7A U34A G35C G36U G44A is 0.07; for G7C C13U A26C A39G G44U C46U it is 1.33; for G7A U32C G35C U43A it is 0.03.

As for G7C A16G A25G U32G G33U, the self-cleavage was determined as 0. Next, G7C C31G G36U C42A: 0.04; G7C G30U U38C: 0.18. With G7U A11U C45G, the self-cleavage is 0.01. Next, G7U A11U C45U: 0.02. Consider G7C A11G C13A C46A, for which the self-cleavage came to 0.04. G7C C15A A41G: the self-cleavage came out at 0.04. Next, G7A U34A C45G: 0.05. As to G7C C23U C31A, the self-cleavage worked out at 0.06.

As to G7C G27A C45G, the self-cleavage turned out to be 0.23. Next, G7C C18A G30C C31U: 0.08.

Consider G7C C10G A11U U28A C45A, for which the self-cleavage turned out to be 0.03. Next, G7C G21A G40A C46A: 0.32; G7C A26G G29U G44U: 0.43. In the case of G7C C18A C23U G35U U38C, the self-cleavage was 0.01. Next, G7C G27C G29C: 0.01; G7C A16U G17A U43G C45A: 0.09. In the case of G7C C23U G36U A39G C42A, the self-cleavage turned out to be 0.02. Next, G7C C18U G35U G36U C42U: 0.04. As to G7C G22U G30C, the self-cleavage was determined as 0.05.

Regarding G7C G35A G36C C45U, the self-cleavage is 0.05. With G7C G30U C42U, the self-cleavage was determined as 0.05.

As for G7C U9A G17A A25C C37A, the self-cleavage is 0.02. G7U A11U U20G: the self-cleavage came out at 0.02.

For G7C U20G A26G G30U C42U, the self-cleavage was determined as 0.

Take G7C G30U G36U A41C: the self-cleavage stood at 0.15. Consider G7C C23A U38A A41C, for which the self-cleavage worked out at 0.08. Regarding G7C C13A A14U C23U, the self-cleavage was 0.09. Next, G7C C8U G17A U38C: 0.15; G7C G21U A25C: 0.05.

G7C C8U G44U C46U: the self-cleavage was 0.05. The figure for G7C G22A U38G C45A is 0.01; for G7C C13U G17C A39G G40U it is 0.05; for G7C G36C C45U it is 0.02. Next, G7C A16G G27U U43A: 0.12; G7C U28A U38C G40U: 0.15; G7C C10A C15U U34G: 0.01. The figure for G7C A12C C13U C15A is 0.04; for G7C C15G G30U C31A A39C C46A it is 0; for G7C U9A G27A G30U G36U it is 0.02. In the case of G7U A11G A14C G40C, the self-cleavage was 0.02. For the variant G7C C8U G19A, the self-cleavage came to 0.13. Next, G7C U20C G21U A39C G40U: 0.05; G7C A24U G30C U34G: 0.07. The figure for G7C C18A C45A is 0.06; for G7U A11U A16U G17C C18G G27U it is 0; for G7C A25U A41C it is 0.07. In the case of G7A U43A G44C, the self-cleavage worked out at 0.14. The figure for G7C C31G G35A is 0.37; for G7C C18A G22C A24G A25C A39U C46A it is 0.02. The figure for G7C C18A A25C U28A is 0.03; for G7C G17U C18A G19A G44C it is 0.03; for G7U A11U A12U it is 0.01. With G7C C13A U20C, the self-cleavage stood at 0.01. Consider G7C A16C G17A A39C, for which the self-cleavage turned out to be 0.17.

On to G7U A12C C15U G29U C31A, for which the self-cleavage turned out to be 0.02. The figure for G7C C8A C13U G35U is 0.5; for G7C U28C C31G A39G it is 0.

As for G7C C8A A11C A25C U28A C45G, the self-cleavage was determined as 0.01. The figure for G7C C13G G30C G40C is 0.04; for G7C A26C U28G it is 0.02. On to G7C C10A U20G G30A G33A C42G, for which the self-cleavage came to 0.

As to G7C A11C G27U, the self-cleavage came to 0.01. Next, G7C C23U G40C A41U G44A: 0.07; G7C C13G A24G: 0.26. Next, G7C C13G A24U: 0.05. G7C G21C C37A U43A: the self-cleavage is 0.52. The figure for G7C G19C U43A G44C is 0.03; for G7C C13A G33U G35A it is 0.02; for G7U A11C U43C it is 0.05.

In the case of G7C C13U U32G G35U, the self-cleavage came to 0.15. Next, G7C C18U G27U C37G: 0.04; G7C C10U G36A A41G: 0.02. As for G7C U28G G33U, the self-cleavage turned out to be 0.09. Next, G7C A11U A14C C37A: 0.04. The figure for G7C U20C G21C U34C C45G is 0.07; for G7C G19A G30C G35U C42U it is 0.12; for G7C C8G G33A it is 0.09.

With G7C A14U A26U C37U, the self-cleavage is 0.02.

Take G7C G22A G44C: the self-cleavage stood at 0.13. Turning to G7C G19U G21C, the self-cleavage turned out to be 0. In the case of G7C C23A G35C G44A, the self-cleavage stood at 0.06. Next, G7C C8U A11C A16G G17U C46A: 0.01. For the variant G7U A11G A24U C37A, the self-cleavage came to 0.01.

G7C G19A A41U: the self-cleavage is 0.21.

Take G7C A11C C31A G35U: the self-cleavage was found to be 0.02.
